Measured values as given in publication PMC6212790.
The other results are listed elsewhere or left out. At the low end of the ranking the order means little.

biological target: T1, GST-Rok (full length) (UniProt O34857); assay: protein binding microarray; settings: Rok is a gene silencer of Bacillus subtilis; high values mean tight binding; most listed sequences are background and not binding sites; double strand, one strand shown;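 note: rank score from −0.5 (least bound) to 0.5 (best bound)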
T1 sequence: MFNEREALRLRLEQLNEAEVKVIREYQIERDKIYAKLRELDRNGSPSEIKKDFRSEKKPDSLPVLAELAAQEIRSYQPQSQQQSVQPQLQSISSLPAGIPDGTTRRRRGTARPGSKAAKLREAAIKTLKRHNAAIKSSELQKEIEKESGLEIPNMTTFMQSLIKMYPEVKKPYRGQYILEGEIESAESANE

Sequence	binding signal
TGACGTAA	-0.0449 E-score
CGCGTGCC	-0.296 E-score
TCGTTGCA	0.102 E-score
AAGCTCAC	-0.199 E-score
CACGCTGC	-0.169 E-score
CCAAAGTC	0.0563 E-score
ACGCGGTC	-0.0839 E-score
AATAGAGC	0.0399 E-score
GTGGGAGA	-0.297 E-score
GAGTCTAC	-0.00523 E-score
CCACGTTA	0.184 E-score
GTGGGGCA	-0.348 E-score
ACACTGAG	-0.368 E-score
ACCCGAGA	-0.152 E-score
TACGAGAA	0.113 E-score
AGCGACTC	-0.0265 E-score
AATCGTGT	0.15 E-score
ACAATGGT	0.0705 E-score
TGCAGTAA	0.194 E-score
AGTATACC	0.164 E-score
CCTTAACC	-0.0948 E-score
AAACATGC	0.0306 E-score
AATGTAGT	0.363 E-score
AGCTCGTG	-0.358 E-score
AGCATCGA	-0.0468 E-score

Sequence	binding signal
GCTGGTAA	0.0556 E-score
ATAGCCCC	-0.236 E-score
GTCGTTCA	0.00947 E-score
AATGCTGG	-0.152 E-score
GCCTCACC	-0.231 E-score
GGGGCACA	-0.17 E-score
AAGGGTAC	-0.0879 E-score
CCAGTGCG	-0.201 E-score
CCAACGGA	-0.0289 E-score
ACCTAGTA	0.292 E-score
ATCCACAT	0.206 E-score
ATATCGAG	0.213 E-score
AGCGGCAC	-0.184 E-score
GCAGCAGC	-0.158 E-score
CGAGTAGA	0.0915 E-score
GAGGTACC	0.0117 E-score
ATGGGCCG	-0.146 E-score
CGTAATTC	0.2 E-score
GTGTCCTA	0.0862 E-score
GAGCGTGC	-0.232 E-score
AGAGCGTA	0.02 E-score
CGCAGCGA	-0.0147 E-score
ATTGGCAG	-0.147 E-score
AAAAACTA	0.417 E-score
ATTCTGGA	-0.00738 E-score

Sequence	binding signal
ACTCATAT	0.111 E-score
CTCATGAA	-0.0384 E-score
CTCGCATC	-0.101 E-score
AAGCCGAC	0.00914 E-score
AACATCTT	0.17 E-score
AGCCATTC	0.00502 E-score
GAGTGCAC	-0.194 E-score
CGATGCCC	-0.0481 E-score
AGCGACCT	0.0288 E-score
TGCTTCAA	-0.25 E-score
ATTCAAAA	0.118 E-score
GATAGGAC	-0.0277 E-score
ACTTAAAT	0.195 E-score
CGAACATC	0.0919 E-score
GTTCGATA	0.133 E-score
GATCGTCC	-0.233 E-score
GAGACTAC	0.0223 E-score
GCTTAGAC	-0.0388 E-score
ACCCCAAG	-0.0462 E-score
AATAGTGC	0.202 E-score
ACATCGCG	0.165 E-score
AATGCGTA	0.157 E-score
CTCCAGAC	-0.129 E-score
TAACTGAA	0.23 E-score
CCTGGAAC	-0.0762 E-score

Sequence	binding signal
CCCTACCG	-0.258 E-score
CCTTAACA	-0.0787 E-score
AAGATCTA	0.272 E-score
AGATCAAG	0.107 E-score
GTATATGA	0.216 E-score
AACTGATA	0.299 E-score
GACTACTA	0.34 E-score
CCGACTCC	-0.406 E-score
ACCAAGGA	-0.0643 E-score
CGTATGCC	-0.11 E-score
GAAGTATA	0.169 E-score
AGCTGTTG	-0.0284 E-score
ATATTCTA	0.424 E-score
CTACCGGA	0.177 E-score
ATGGATGG	-0.15 E-score
ACGCTACG	0.103 E-score
AAAGTGTA	0.206 E-score
CCGTCTTA	-0.144 E-score
ACCGTATC	0.166 E-score
GTGATTAA	0.0579 E-score
AGCCAGGA	-0.163 E-score
CTTTCACA	-0.00421 E-score
CTATCCTA	0.0781 E-score
AATTCCCG	0.0344 E-score
AGTCGGGG	-0.222 E-score

Sequence	binding signal
CAAACATG	0.124 E-score
AACCAGTC	-0.188 E-score
ACCTCAGC	0.0157 E-score
AGCATAGC	-0.148 E-score
ACACTGAT	0.0842 E-score
ACCTGGAG	-0.112 E-score
ATGCCCCC	-0.325 E-score
CATACTGA	-0.0112 E-score
GACCGTCA	-0.199 E-score
CTATGATC	0.184 E-score
AACGGATG	-0.0352 E-score
AAAGGTGA	-0.0487 E-score
CATAACGA	0.202 E-score
CAATTGTG	0.000958 E-score
ACAGTCCT	-0.0828 E-score
ACGGGACA	-0.213 E-score
CTGCTCCA	-0.195 E-score
ATACGCTG	-0.0793 E-score
GAACTCAA	0.0343 E-score
AAGGAGTG	-0.314 E-score
CGTTGGAC	-0.283 E-score
ACGCCCCT	-0.344 E-score
GACCAATC	-0.0645 E-score
CGGCGCCA	-0.298 E-score
CTCGGTCC	-0.308 E-score

Sequence	binding signal
ACGTTATG	-0.0734 E-score
GTGAAAAA	-0.0619 E-score
TTACTCAA	0.0566 E-score
CTTGAATC	-0.083 E-score
GACACTCC	-0.209 E-score
GGATGACC	-0.0389 E-score
ACCGCACG	-0.077 E-score
TCGAGTCA	-0.124 E-score
ACACCCCC	-0.257 E-score
CTCGAGAA	0.0455 E-score
GTCCTGAA	-0.0102 E-score
AACTGGAG	-0.0563 E-score
ACATTTGG	0.0586 E-score
CCACCCAG	-0.0762 E-score
GATGAGCA	0.00806 E-score
GGTTATAC	0.134 E-score
ATTTTCCA	0.16 E-score
AAACGATG	0.0574 E-score
GTTGATTA	0.134 E-score
TAAATGTA	0.411 E-score
ACAGGGTG	-0.205 E-score
AGTAGCTC	0.0983 E-score
ACAATGCC	-0.051 E-score
CGCCGCAA	-0.286 E-score
GAGAAAAA	0.0593 E-score

Sequence	binding signal
CATAAATG	0.107 E-score
GCACAGTA	-0.0912 E-score
ACTCCTCT	-0.166 E-score
GATCGTGA	-0.118 E-score
AAATATAT	0.429 E-score
CTAAGGGA	-0.154 E-score
CATAGGTA	0.219 E-score
GGCTAAGA	0.000408 E-score
ACTGTCCT	0.0227 E-score
AAGCGCGC	-0.212 E-score
AATTAATA	0.256 E-score
CATCAGAC	-0.105 E-score
ATGCCACG	-0.206 E-score
AAACATTT	0.0971 E-score
AAACCAAA	-0.0651 E-score
CAAGTTTC	0.168 E-score
CGACATAC	-0.0148 E-score
GGGATACC	-0.0354 E-score
GCGGCGCC	-0.371 E-score
ATGCGGTC	-0.111 E-score
CGATAACG	0.109 E-score
AGAATGGG	0.00345 E-score
